For assay [1], the target named is Endogenous Glut-1 on human cells (human (endogenous in 293T, Jurkat, erythrocytes, primary T cells)) (UniProt P11166). The assay is described as follows: flow cytometry on cells; endogenous Glut-1 on 293T, Jurkat and primary human erythrocytes; 30 min at 37°C with HRBD-rFc supernatants or H2RBD-EGFP; Jurkat cells also with or without cytochalasin B or cytochalasin D (100 μM, 30 min). (In general: Flow cytometry measures light scatter and fluorescence of single cells or particles in a stream.)

Chains of the proteins cited; added tags and fusions are not shown. Residues count along the entry.
UniProt P11166: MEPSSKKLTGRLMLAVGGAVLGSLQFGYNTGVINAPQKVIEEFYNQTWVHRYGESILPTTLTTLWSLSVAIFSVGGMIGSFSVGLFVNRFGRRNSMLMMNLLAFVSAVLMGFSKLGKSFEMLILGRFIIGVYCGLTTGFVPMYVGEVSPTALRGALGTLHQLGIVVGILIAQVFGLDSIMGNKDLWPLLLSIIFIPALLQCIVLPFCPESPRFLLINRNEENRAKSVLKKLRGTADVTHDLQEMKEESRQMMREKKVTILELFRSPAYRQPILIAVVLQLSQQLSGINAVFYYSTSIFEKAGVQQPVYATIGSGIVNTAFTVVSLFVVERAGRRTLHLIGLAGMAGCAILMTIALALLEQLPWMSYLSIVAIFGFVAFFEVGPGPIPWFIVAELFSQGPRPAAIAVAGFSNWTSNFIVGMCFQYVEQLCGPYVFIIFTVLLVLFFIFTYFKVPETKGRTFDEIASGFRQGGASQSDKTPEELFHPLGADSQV
UniProt P03381, residues 21-215: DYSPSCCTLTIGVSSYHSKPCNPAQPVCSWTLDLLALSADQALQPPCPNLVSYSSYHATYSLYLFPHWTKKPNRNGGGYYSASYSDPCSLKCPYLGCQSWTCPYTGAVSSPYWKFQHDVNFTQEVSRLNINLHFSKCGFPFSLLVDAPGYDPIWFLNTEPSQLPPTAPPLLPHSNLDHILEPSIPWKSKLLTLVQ
UniProt P03383, residues 19-178: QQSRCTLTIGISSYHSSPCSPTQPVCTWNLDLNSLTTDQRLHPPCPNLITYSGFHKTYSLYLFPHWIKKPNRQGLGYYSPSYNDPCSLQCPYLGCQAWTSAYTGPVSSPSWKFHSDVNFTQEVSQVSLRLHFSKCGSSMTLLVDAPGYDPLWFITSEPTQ

Assay [2] shares this target. The assay is described as follows: flow cytometry on cells; primary human CD4+ and CD8+ T cells, non-activated or stimulated with αCD3/αCD28 mAbs; 30 min at 37°C with rFc-tagged H1RBD (then FITC sheep anti-rabbit IgG, 20 min at 4°C) or H2RBD-EGFP.
The target in assay [3] is Human Glut-1 glucose transporter, ectopically expressed on transfected 293T cells (human) (UniProt P11166). The assay is described as follows: flow cytometry on cells; 293T cells transfected with Glut-1 or Glut-3 vectors; cells incubated 30 min at 37°C with undiluted HRBD-rFc supernatants (then FITC anti-rabbit Fc, on ice) or 1:25-1:50 concentrated H2RBD-EGFP.
Assay [4] has as its target T1, Human Glut-3 glucose transporter, ectopically expressed on transfected 293T cells (human) (UniProt P11169).
T1 sequence: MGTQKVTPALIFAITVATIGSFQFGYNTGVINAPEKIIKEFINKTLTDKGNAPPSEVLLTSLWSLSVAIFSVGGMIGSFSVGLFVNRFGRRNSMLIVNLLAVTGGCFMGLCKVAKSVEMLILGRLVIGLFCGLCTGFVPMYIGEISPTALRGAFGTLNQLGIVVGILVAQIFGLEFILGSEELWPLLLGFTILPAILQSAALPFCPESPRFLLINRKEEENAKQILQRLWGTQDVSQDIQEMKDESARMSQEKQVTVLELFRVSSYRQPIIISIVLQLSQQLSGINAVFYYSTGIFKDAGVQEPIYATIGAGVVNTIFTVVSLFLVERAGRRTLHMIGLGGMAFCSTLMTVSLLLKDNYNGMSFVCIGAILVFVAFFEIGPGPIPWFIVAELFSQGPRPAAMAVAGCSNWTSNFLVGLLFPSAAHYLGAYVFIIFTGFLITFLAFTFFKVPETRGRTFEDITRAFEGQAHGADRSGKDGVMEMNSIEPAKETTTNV
Described as above.

Results are given in words; binding and its absence hold for the method and conditions named. Some entries that bind do so weakly or less than the wild type. For some assays here: Sequences can lack the tags named with a protein.

For three substances, binding results are on record in paper PMC1876471.

As to “H1RBD (H1_(215)SU subdomain of the HTLV-1 envelope SU, rFc-tagged fusion protein) (from UniProt P03381 21-215) (Fc fusion)”, the binding result in assay [1] is reported as “binds”; in assay [2] it was “binds”; in assay [3], “binds”; in assay [4] it was “no binding”.
As for “H2RBD (H2_(178)SU subdomain of the HTLV-2 envelope SU, rFc-tagged fusion protein) (from UniProt P03383 19-178) (Fc fusion)”, the figures for the binding result in assay [1], in assay [3] and in assay [4] were “binds”, “binds” and “no binding”, respectively.
For the substance “H2RBD-EGFP (amino terminal 178 amino acids of the HTLV-2 RBD fused to EGFP) (from UniProt P03383 19-178) (domain or fragment)”, the binding result was “binds” in assay [1], “binds” in assay [2], “binds” in assay [3] and “no binding” in assay [4].
